The campaign covered roughly 310,000 compounds. About 2,200 (0.71%) showed an effect of 50% or more. Effects have a minus sign here. Some of the results follow.
What follows are molecules tested against human ether-à-go-go-related gene (hERG) potassium channel (human, UniProt Q12809) (assay: primary screen, population patch clamp on CHO cells stably expressing hERG).
human ether-à-go-go-related gene (hERG) potassium channel, sequence (Q12809 whole entry, looked up): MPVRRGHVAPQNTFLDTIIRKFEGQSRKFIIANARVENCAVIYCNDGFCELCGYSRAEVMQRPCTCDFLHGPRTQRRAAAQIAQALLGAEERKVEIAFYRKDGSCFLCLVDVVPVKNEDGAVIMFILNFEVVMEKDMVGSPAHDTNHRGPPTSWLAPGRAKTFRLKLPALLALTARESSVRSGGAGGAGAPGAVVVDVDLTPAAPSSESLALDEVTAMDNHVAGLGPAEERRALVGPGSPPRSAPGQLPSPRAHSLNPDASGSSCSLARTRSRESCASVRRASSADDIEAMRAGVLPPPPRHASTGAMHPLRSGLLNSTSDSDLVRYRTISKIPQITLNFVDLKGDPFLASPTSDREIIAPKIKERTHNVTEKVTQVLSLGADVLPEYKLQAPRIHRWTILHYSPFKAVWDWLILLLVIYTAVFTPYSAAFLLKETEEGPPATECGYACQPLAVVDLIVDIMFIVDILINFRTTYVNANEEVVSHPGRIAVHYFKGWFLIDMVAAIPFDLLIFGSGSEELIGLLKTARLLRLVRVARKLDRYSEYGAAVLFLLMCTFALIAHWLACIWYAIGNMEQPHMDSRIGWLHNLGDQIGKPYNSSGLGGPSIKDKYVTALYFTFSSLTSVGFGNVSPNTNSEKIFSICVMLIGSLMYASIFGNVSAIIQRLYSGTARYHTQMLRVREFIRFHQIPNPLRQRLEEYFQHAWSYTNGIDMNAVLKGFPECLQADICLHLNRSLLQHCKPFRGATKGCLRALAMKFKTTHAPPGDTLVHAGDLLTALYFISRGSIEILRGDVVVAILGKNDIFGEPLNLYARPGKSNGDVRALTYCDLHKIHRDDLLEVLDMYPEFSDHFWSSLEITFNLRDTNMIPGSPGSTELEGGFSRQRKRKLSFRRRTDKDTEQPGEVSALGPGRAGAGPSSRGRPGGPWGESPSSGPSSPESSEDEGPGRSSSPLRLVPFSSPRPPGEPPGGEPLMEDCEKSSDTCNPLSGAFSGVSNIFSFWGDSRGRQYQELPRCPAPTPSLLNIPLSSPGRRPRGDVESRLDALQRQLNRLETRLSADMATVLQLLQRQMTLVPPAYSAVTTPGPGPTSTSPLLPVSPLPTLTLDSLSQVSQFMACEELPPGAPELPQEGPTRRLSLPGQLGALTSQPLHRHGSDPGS

Question: With `CCN(C(=O)COC(=O)CC1CCCCC1)c1c(N)n(Cc2ccccc2)c(=O)[nH]c1=O` as the molecule, how does the “hERG current change (%, negative = inhibition) at 1uM” value read?
Answer: Its value is 8.77%.

Question: For `c1ccc(CNc2ncnc3scc(-c4cccs4)c23)nc1`, which “hERG current change (%, negative = inhibition) at 1uM” value is on record?
Answer: The value was 1.24%.

Question: `CCOc1ccc2nc(N3CCC(C(=O)N4CCN(C5CCCCC5)CC4)CC3)sc2c1` was tested. Which “hERG current change (%, negative = inhibition) at 1uM” value did it give?
Answer: Its value is -8.64%.

Question: For `CCOC(=O)C1=C(C)N(CCCC(=O)O)C(=O)NC1c1ccccc1OC(=O)c1cccs1` (stereo not shown), which “hERG current change (%, negative = inhibition) at 1uM” value is on record?
Answer: Its value is 14.6%.

Question: With `Cc1ccc(C(C)NC(=O)c2cccs2)cc1C` (stereo not shown) as the molecule, how does the “hERG current change (%, negative = inhibition) at 1uM” value read?
Answer: The value was 7.25%.

Question: How did the “hERG current change (%, negative = inhibition) at 1uM” value turn out when `Clc1ccc(CN(Cc2ccccc2)C(c2cccs2)c2nnnn2C2CCCC2)cc1` (stereo not shown) was run?
Answer: Its value is 3.78%.

Question: With `COc1cccc(CNC(=O)c2cccc(Br)c2)c1` as the molecule, how does the “hERG current change (%, negative = inhibition) at 1uM” value read?
Answer: Its value is 9.15%.

Question: For `CCOc1ccc(/C=C/c2nc(C#N)c(NCCCN(C)C)o2)cc1`, which “hERG current change (%, negative = inhibition) at 1uM” value is on record?
Answer: Its value is -2.12%.

Question: Which “hERG current change (%, negative = inhibition) at 1uM” value does the source give for `COc1ccccc1/C=C1\SC(=S)N(CCC(=O)Nc2ccc(C(=O)O)c(O)c2)C1=O` here?
Answer: Its value is 2.92%.

Question: How did the “hERG current change (%, negative = inhibition) at 1uM” value turn out when `COc1ccc2cnn(-c3ccc(OC(F)(F)Cl)cc3)c(=O)c2c1OC` was run?
Answer: The value was 13.5%.

Question: How did the “hERG current change (%, negative = inhibition) at 1uM” value turn out when `COCCn1c(=N)c(S(=O)(=O)c2ccc(Br)cc2)cc2c(=O)n3ccccc3nc21` was run?
Answer: Its value is 9.15%.

Question: `O=C(NC1CCCCC1)c1ccc(CS(=O)(=O)Cc2ccccc2F)o1` was tested. Which “hERG current change (%, negative = inhibition) at 1uM” value did it give?
Answer: Its value is 11.3%.

Question: With `COc1ccc(/C=N/NC(=O)c2cccc3ccccc23)c(OC)c1OC` as the molecule, how does the “hERG current change (%, negative = inhibition) at 1uM” value read?
Answer: Its value is 8.62%.

Question: Which “hERG current change (%, negative = inhibition) at 1uM” value does the source give for `COC(=O)C1=C(c2ccccc2OCc2ccccc2)C[C@@H]2CC[C@H]1N2C(=O)NCc1ccc(Cl)cc1` here?
Answer: Its value is 19.3%.

Question: For `Cc1ccc(C)c(S(=O)(=O)N2CCCOC2CNC(=O)C(=O)NCCCN2CCOCC2)c1` (stereo not shown), which “hERG current change (%, negative = inhibition) at 1uM” value is on record?
Answer: The value was 7.91%.

Question: For `Cc1ccccc1C(=O)NC(=S)Nc1ccccc1C(F)(F)F`, which “hERG current change (%, negative = inhibition) at 1uM” value is on record?
Answer: The value was 10.8%.

Question: `COc1cccc(/C=C2\N=C(c3c(-c4ccccc4)noc3C)OC2=O)c1` was tested. Which “hERG current change (%, negative = inhibition) at 1uM” value did it give?
Answer: The value was 13.2%.

Question: `S=C(NCc1ccco1)Nc1cccc(Cl)c1Cl` was tested. Which “hERG current change (%, negative = inhibition) at 1uM” value did it give?
Answer: The value was -1.87%.

Question: `CN1CCCC(C(=O)c2ccc(Cl)cc2)C1` (stereo not shown) was tested. Which “hERG current change (%, negative = inhibition) at 1uM” value did it give?
Answer: Its value is -2.93%.

Question: How did the “hERG current change (%, negative = inhibition) at 1uM” value turn out when `COc1cc(C(=O)O/N=C(\N)Cc2ccc([N+](=O)[O-])cc2)cc(OC)c1OC` was run?
Answer: The value was 1.03%.

Question: Which “hERG current change (%, negative = inhibition) at 1uM” value does the source give for `COc1cccc(-n2ccnc2SCC(=O)Nc2ccccc2F)c1` here?
Answer: Its value is 2.05%.

Question: With `Cn1cc(S(=O)(=O)NCC2CCCO2)c(=O)n(C)c1=O` (stereo not shown) as the molecule, how does the “hERG current change (%, negative = inhibition) at 1uM” value read?
Answer: Its value is -5.14%.

Question: Which “hERG current change (%, negative = inhibition) at 1uM” value does the source give for `O=C(O)c1cc(O)c2c(c1)C(=O)c1cc(O)cc(O)c1C2=O` here?
Answer: Its value is 15.4%.

Question: `COc1ccccc1/C=N/NC(=O)CC(=O)NCc1cccnc1` was tested. Which “hERG current change (%, negative = inhibition) at 1uM” value did it give?
Answer: The value was 12.1%.

Question: How did the “hERG current change (%, negative = inhibition) at 1uM” value turn out when `COc1ccc(CN(C)Cc2nc3cc(OC)c(OC)cc3c(=O)[nH]2)c(OC)c1` was run?
Answer: The value was 4.79%.

Question: For `Cc1ccc(NC(=O)C2CCCN2C(=O)OCc2ccccc2)c(C)c1` (stereo not shown), which “hERG current change (%, negative = inhibition) at 1uM” value is on record?
Answer: Its value is -0.547%.

Question: Which “hERG current change (%, negative = inhibition) at 1uM” value does the source give for `S=C(Nc1ccccc1)N1CCN(C2CCCCC2)CC1` here?
Answer: The value was 5.84%.

Question: For `O=C(O)c1cccc(S(=O)(=O)Nc2ccc3c(c2)CCC3)c1`, which “hERG current change (%, negative = inhibition) at 1uM” value is on record?
Answer: The value was 17.2%.

Question: How did the “hERG current change (%, negative = inhibition) at 1uM” value turn out when `COc1ccc2nc(C)cc(C(=O)O)c2c1` was run?
Answer: Its value is 8.4%.

Question: Which “hERG current change (%, negative = inhibition) at 1uM” value does the source give for `COc1ccc(-c2noc(CN(C)C(=O)CCN3C(=O)[C@H]4CC=CC[C@H]4C3=O)n2)cc1` here?
Answer: The value was 12.6%.

Question: How did the “hERG current change (%, negative = inhibition) at 1uM” value turn out when `COc1ccc(CCNC(=O)NC2CCCCC2)cc1` was run?
Answer: Its value is -11.8%.

Question: How did the “hERG current change (%, negative = inhibition) at 1uM” value turn out when `O=c1c2ccccc2c2ccccc2c(=O)n1CC1CCCO1` (stereo not shown) was run?
Answer: The value was 6.13%.

Question: For `COc1cccc2cc(C(C)N(CCCN3CCOCC3)C(=S)Nc3ccccc3C)oc12` (stereo not shown), which “hERG current change (%, negative = inhibition) at 1uM” value is on record?
Answer: The value was 6.27%.

Question: `Cc1ccc2c(c1)c(CC(=O)Nc1ccc(F)cc1)c(C(=O)O)n2C` was tested. Which “hERG current change (%, negative = inhibition) at 1uM” value did it give?
Answer: Its value is 6.32%.

Question: With `CCN(CC)CCCNC(=O)c1ccc2c3n(nc2c1)-c1ccc(Cl)cc1CO3` as the molecule, how does the “hERG current change (%, negative = inhibition) at 1uM” value read?
Answer: The value was -4.38%.

Question: How did the “hERG current change (%, negative = inhibition) at 1uM” value turn out when `COC(=O)C1=C(C)Nc2sc(C(N)=O)c(N)c2C1c1ccncc1` (stereo not shown) was run?
Answer: The value was 13%.

Question: Which “hERG current change (%, negative = inhibition) at 1uM” value does the source give for `Cc1c2ccccc2c(C)c2c1ccc1ccccc12` here?
Answer: The value was -3.55%.

Question: For `CCn1nc(C)c(Br)c1Nc1ccc(Br)cc1`, which “hERG current change (%, negative = inhibition) at 1uM” value is on record?
Answer: Its value is 23.2%.

Question: How did the “hERG current change (%, negative = inhibition) at 1uM” value turn out when `CC(c1ccccc1F)n1cc(C(=O)NCCCc2nc3ccccc3[nH]2)nn1` (stereo not shown) was run?
Answer: The value was 26.3%.

Question: For `CC(NCCS(=O)(=O)c1ccc(Cl)cc1)c1cccc(Cl)c1` (stereo not shown), which “hERG current change (%, negative = inhibition) at 1uM” value is on record?
Answer: The value was 10.9%.

Question: For `CSc1nc2c(cnn2-c2ccccc2)c(=O)n1N`, which “hERG current change (%, negative = inhibition) at 1uM” value is on record?
Answer: The value was -10.2%.

Question: For `CCOc1ccc(NC(=O)COc2ccc(-n3cnnn3)cc2)cc1`, which “hERG current change (%, negative = inhibition) at 1uM” value is on record?
Answer: Its value is 4.6%.

Question: How did the “hERG current change (%, negative = inhibition) at 1uM” value turn out when `COc1ccc(OCC(O)CNC(=O)c2cccs2)cc1` (stereo not shown) was run?
Answer: Its value is 14.6%.

Question: How did the “hERG current change (%, negative = inhibition) at 1uM” value turn out when `CC(=O)C1=C(C)Nc2ncnn2C1c1ccc(Br)cc1` (stereo not shown) was run?
Answer: The value was 10%.

Question: For `CCCCCC(=O)N1CC2(CC(c3cccc(NC(=O)[C@@H]4CCC(=O)N4)c3)=NO2)C[C@@H]1C(N)=O` (stereo partly shown), which “hERG current change (%, negative = inhibition) at 1uM” value is on record?
Answer: The value was 11.9%.

Question: `O=C1C2CCCN2C(c2ccc(F)cc2)N1c1nccs1` (stereo not shown) was tested. Which “hERG current change (%, negative = inhibition) at 1uM” value did it give?
Answer: Its value is 7.68%.

Question: How did the “hERG current change (%, negative = inhibition) at 1uM” value turn out when `O=C(NCc1cccc(Cl)c1)c1cccnc1` was run?
Answer: The value was 9.87%.

Question: With `Cc1cc(=O)oc2cc(NC(=O)C(C)Oc3cccc(Cl)c3)ccc12` (stereo not shown) as the molecule, how does the “hERG current change (%, negative = inhibition) at 1uM” value read?
Answer: Its value is 15.4%.

Question: For `CCCOc1ccc(CSc2nc3ccccc3[nH]2)cc1`, which “hERG current change (%, negative = inhibition) at 1uM” value is on record?
Answer: The value was -0.551%.

Question: For `c1ccc(Nc2nc(N3CCCCC3)nc(N3CCCCC3)n2)cc1`, which “hERG current change (%, negative = inhibition) at 1uM” value is on record?
Answer: The value was 2.56%.

Question: For `CCN(CC(=O)Nc1c(F)cccc1F)C(=O)C1=COCCO1`, which “hERG current change (%, negative = inhibition) at 1uM” value is on record?
Answer: The value was 0.851%.

Question: Which “hERG current change (%, negative = inhibition) at 1uM” value does the source give for `N#CCCN1CCN(S(=O)(=O)c2ccc(S(=O)(=O)NC3CCCCC3)cc2)CC1` here?
Answer: The value was 11.3%.

Question: For `CCOC(=O)Cn1cc(C(=O)c2ccccc2F)c2ccccc21`, which “hERG current change (%, negative = inhibition) at 1uM” value is on record?
Answer: Its value is 10.4%.

Question: `Cc1ccc2c(cnn2C(=O)CCCC(=O)NC(C)c2ccccc2)c1` (stereo not shown) was tested. Which “hERG current change (%, negative = inhibition) at 1uM” value did it give?
Answer: Its value is 7.58%.

Question: How did the “hERG current change (%, negative = inhibition) at 1uM” value turn out when `Cn1cc(Cl)nc1C(O)c1ccccc1` (stereo not shown) was run?
Answer: Its value is 8.19%.

Question: Which “hERG current change (%, negative = inhibition) at 1uM” value does the source give for `C(=C\c1ccccc1)/C=N/Nc1nc2ccccc2s1` here?
Answer: Its value is -5.49%.

Question: Which “hERG current change (%, negative = inhibition) at 1uM” value does the source give for `O=C1Nc2ccccc2N(O)N1c1ccc(S(=O)(=O)N2CCOCC2)cc1` here?
Answer: The value was 3.34%.

Question: How did the “hERG current change (%, negative = inhibition) at 1uM” value turn out when `Cc1cc(NS(=O)(=O)c2ccc(NC(=O)C(C(C)C)N3C(=O)c4ccccc4C3=O)cc2)nc(C)n1` (stereo not shown) was run?
Answer: Its value is 9.77%.

Source: paper PMC4336329 (PLoS ONE, 2015)
